# Reference: PubChem BioAssay AID540317 (National Center for Advancing Translational Sciences (NCATS), 2011)
# Hit rate of the full screen: of about 390,000 compounds, about 2,200 (0.56%) were called active. Inconclusive results, whose numbers are uncertain, are shown with a selection of clear calls. The call rests on the fitted dose curve; in most records, active means well fitted inhibition curve with a large enough effect; inconclusive means small, poorly fitted or top-dose-only effect; inactive means no such curve, though single readings can be large or run the other way. Potencies beside an inconclusive call are fits to weak or partial responses and may not hold up.
# Target: Chromobox protein homolog 1 (Homo sapiens) (UniProt P83916)
# Chain of UniProt P83916 (P83916 whole entry, looked up): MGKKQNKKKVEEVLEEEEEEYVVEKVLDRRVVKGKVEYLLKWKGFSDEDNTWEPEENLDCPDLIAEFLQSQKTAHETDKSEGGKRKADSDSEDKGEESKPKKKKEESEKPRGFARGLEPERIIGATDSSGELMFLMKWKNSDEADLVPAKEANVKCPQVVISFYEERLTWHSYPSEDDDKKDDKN
# Experiment: HTS for Inhibitors of HP1-beta Chromodomain Interactions with Methylated Histone Tails; further: nearly all actives have a fitted effect of over 70% in size
# Settings: AlphaScreen HP1-beta / biotin-H3K9me3 peptide binding; series mostly up to 114 µM; activity change, negative = inhibition: at the top concentration
# In short: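 Compound inhibition of the preformed complex between 50 nM HP1-beta and 50 nM biotinylated H3K9me3 peptide was read by AlphaScreen. Buffer was PBS pH 7.4 with 0.01% Tween-20. Incubations ran 30 min at room temperature, with 10 ug/mL donor/acceptor beads.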
# Potency means the concentration at half of the fitted maximal effect; tags describe the fitted curve by direction and shape.
SMILES,Potency,"activity change, negative = inhibition"
CSc1ncccc1C(=O)OCC(=O)c1cc(C)n(C)c1C,"inconclusive: 79.4 µM [inhibitor, partial curve]",–
O=C(CSc1ccc(-c2ccco2)nn1)c1ccc(F)cc1,"inconclusive: 70.8 µM [inhibitor, partial curve]",–
O=C(O)c1cccc(NS(=O)(=O)c2cccc3nsnc23)c1,–,inactive: 56.2%
COc1ccc(N2CCN(C(=O)C(C)(C)Oc3ccc(Cl)cc3)CC2)cc1,"inconclusive: 20 µM [inhibitor, partial curve, poor fit]",–
CCOC(=O)C1=C(COC(=O)/C=C/c2ccco2)NC(=O)NC1C (centres undefined),"inconclusive: 50.1 µM [inhibitor, partial curve, poor fit]",–
CC12CCC(=O)N1C(C(=O)Nc1ccc(SC(F)F)cc1)CS2 (centres undefined),–,inactive: 23.3%
COc1ccc(Nc2nc(N3CCCC3)c3ccccc3n2)cc1,"inconclusive: 50.1 µM [inhibitor, partial curve]",–
O=C(CCCNC(=O)c1ccc(Cl)cc1)NCc1ccccc1F,–,inactive: -1.59%
OCCN1CCN(Cc2ccc3ccccc3c2)CC1,"inconclusive: 14.1 µM [inhibitor, partial curve, poor fit]",–
O=C(O)C1CC(=O)N(c2ccc(F)cc2)C1 (centres undefined),"inconclusive: 39.8 µM [inhibitor, single point]",–
COC(=O)c1ccc(NCc2cc(O)ccc2O)cc1,"inconclusive: 20 µM [inhibitor, full curve, poor fit]",–
Cc1nc2ccc(NC(=O)c3cc([N+](=O)[O-])cc([N+](=O)[O-])c3Cl)cc2s1,"inconclusive: 10 µM [inhibitor, partial curve, poor fit]",–
CCc1nnc(NC(=O)c2ccc(S(=O)(=O)N3CCc4ccccc4C3)cc2)s1,"inconclusive: 39.8 µM [inhibitor, single point]",–
COc1ccc(-c2cc(-c3nc4ccccn4c3NCc3ccccc3)ccc2OC)cc1,"inconclusive: 31.6 µM [inhibitor, partial curve]",–
NCCNCCNCCN,–,inactive: 44.8%
CC1CCN(S(=O)(=O)c2ccc3c(c2)N(CC(=O)NCc2ccccc2Cl)C(=O)CS3)CC1,–,inactive: 3.86%
COc1cc2nc(N(CCCN(C)C)C(=O)c3ccc(C(=O)c4ccccc4)cc3)sc2cc1OC,"inconclusive: 70.8 µM [inhibitor, partial curve]",–
O=S(=O)(Nc1ccc(F)c(C(F)(F)F)c1)c1ccc(N2CCCCS2(=O)=O)cc1,–,inactive: 66.5%
Oc1cccc(C2c3[nH]c4ccccc4c3CCN2Cc2ccoc2)c1 (centres undefined),–,inactive: -16.2%
O=C(O)c1cc2ccccc2c(N=Nc2cccnc2)c1O,"inconclusive: 70.8 µM [inhibitor, partial curve]",–
CC(=O)N1CC[n+]2c(-c3ccc([N+](=O)[O-])cc3)csc21,active: 10 µM,–
COc1ccccc1CN1CC(C(=O)NCc2cccnc2)CC1=O (centres undefined),–,inactive: 25.4%
CCN(CC)c1ccc(NC(=O)COc2ccccc2C)cc1S(=O)(=O)Nc1ccccc1OC,"inconclusive: 11.2 µM [inhibitor, full curve, poor fit]",–

SMILES,Potency,"activity change, negative = inhibition"
CC1=C(C(=O)OCc2ccccc2)C(c2ccc(N(C)C)cc2)NC(=O)N1 (centres undefined),–,inactive: -23.7%
C/C(=N\NC(=O)c1ccc(N2CCCC2=O)cc1)c1ccc(O)cc1O,–,inactive: 53.7%
COc1cccc(CN2CCN(C(=O)c3ccco3)CC2)c1,"inconclusive: 17.8 µM [inhibitor, full curve]",–
CC(=O)c1[nH]c(C)c(C(=O)NCc2ccc(Cl)cc2)c1C,–,inactive: 64.7%
COc1ccc(NC(=S)Nn2cnnc2)cc1OC,"inconclusive: 7.08 µM [inhibitor, full curve, poor fit]",–
CCOC(=O)c1c(NC(=O)C2CCCO2)sc(C(=O)OC(C)(C)C)c1C (centres undefined),"inconclusive: 7.94 µM [inhibitor, full curve]",–
COc1cccc(-c2cnc(NCc3cc(Cl)ccc3O)n2C)c1,"inconclusive: 17.8 µM [inhibitor, full curve, poor fit]",–
COc1ccc(CN2CCCCCC2)cc1Br,"inconclusive: 70.8 µM [inhibitor, single point]",–
Cc1ccc(OCCSc2nc(-c3cccs3)nc3cc(=O)[nH]n23)cc1Cl,"inconclusive: 89.1 µM [inhibitor, single point]",–
CC1CC(C)CN(C(=O)c2ccc(-c3ccc([N+](=O)[O-])cc3)o2)C1 (centres undefined),"inconclusive: 31.6 µM [inhibitor, full curve]",–
O=[N+]([O-])c1cc(Cl)cc(/C=N/Nc2nc3ccccc3s2)c1O,"inconclusive: 14.1 µM [inhibitor, partial curve, poor fit]",–
Nc1cccc(Oc2c(F)c(F)c(Oc3cccc(N)c3)c(F)c2F)c1,"inconclusive: 79.4 µM [inhibitor, single point]",–
Cc1ccc(NC(=O)C2=CC(c3cccs3)=NS(=O)(=O)N2C)cc1,inactive,–
CCOc1ccc(/C=C/C(=O)NCCc2ccc(OC)c(OC)c2)cc1,"inconclusive: 39.8 µM [inhibitor, partial curve, poor fit]",–
CCOc1ccc(N2C(=O)CC(Sc3nccc(C)n3)C2=O)cc1 (centres undefined),–,inactive: -9.24%
Cc1cc(/C=C2\SC(=S)NC2=O)c(C)n1-c1ccc(O)cc1,"inconclusive: 25.1 µM [inhibitor, full curve]",–
Cc1ccc(OCC(=O)N2CCC(N3CC(C)CC(C)C3)CC2)cc1 (centres undefined),"inconclusive: 44.7 µM [inhibitor, partial curve, poor fit]",–
COc1ccc(OC)c(NC(=O)CSc2sc3c(O)cc(=O)[nH]c3c2C#N)c1,"inconclusive: 89.1 µM [inhibitor, single point]",–
COC(=O)c1cc2occc2n1Cc1ccc(F)cc1Cl,"inconclusive: 50.1 µM [inhibitor, partial curve]",–
CCOC(=O)C1CCCN(Cc2ccccc2Cl)C1 (centres undefined),"inconclusive: 56.2 µM [inhibitor, single point]",–
CSc1ccc(/C=N/N2CCN(Cc3ccccc3Cl)CC2)cc1,"inconclusive: 39.8 µM [inhibitor, partial curve]",–
COc1ccc(O)c(/C=N/Nc2nc(C)cc(-c3ccccc3)n2)c1,"inconclusive: 31.6 µM [inhibitor, partial curve]",–
C=CCNC(=S)/N=c1/ccccn1CC,–,inactive: 11.2%

SMILES,Potency,"activity change, negative = inhibition"
CC(=O)c1cccc(NC(=O)N2CCC(C(=O)c3ccc(F)cc3)CC2)c1,"inconclusive: 89.1 µM [inhibitor, single point]",–
Cc1cccc(NCc2n[nH]c(=S)n2-c2ccccc2)c1,–,inactive: -23.9%
COc1ccc(OC)c(CN2CCN(C(=O)c3cccs3)CC2)c1,"inconclusive: 22.4 µM [inhibitor, single point]",–
O=C(c1cccs1)c1c[nH]cc1-c1ccccc1,"inconclusive: 28.2 µM [inhibitor, partial curve, poor fit]",–
CCN1CCN(c2oc(-c3ccc(COc4ccc(OC)cc4)o3)nc2C#N)CC1,"inconclusive: 14.1 µM [inhibitor, full curve]",–
CC(=O)c1ccc(N2C(=O)N(Cc3ccc(F)cc3)c3ccccc3S2(=O)=O)cc1,–,inactive: -6.04%
CCN(CC)c1ccc(NC(=O)Cn2cc3c(n2)CCC(C)C3)c(C)c1 (centres undefined),"inconclusive: 44.7 µM [inhibitor, partial curve, poor fit]",–
CCC(=O)Nc1ccc(C2C(=O)c3ccccc3C2=O)cc1,"inconclusive: 28.2 µM [inhibitor, full curve]",–
COC(=O)C1CSC(C(=O)OC)N1C(=O)CN1CCN(c2ccc(OC)cc2)CC1 (centres undefined),"inconclusive: 89.1 µM [inhibitor, single point]",–
COc1ccc(OC)c(NC(=O)Nc2cccc(OCc3cc(=O)n4cc(C)ccc4n3)c2)c1,–,inactive: 17.3% [at 57 µM]
N#Cc1nc(-c2ccc(OCc3ccccc3)cc2)oc1NCc1cccnc1,–,inactive: -18.1%
CCCNC(=O)CCCCn1c(=S)[nH]c2c([nH]c3ccc(OC)cc32)c1=O,"inconclusive: 20 µM [inhibitor, partial curve]",–
O=C(C[C@H]1C[C@H](C(=O)N2CCOCC2)[C@@]2(CCC3CCCC3)c3[nH]c4cc(-c5ccco5)ccc4c3CCN2C1=O)NCCN1CCOCC1,"inconclusive: 25.1 µM [inhibitor, partial curve]",–
O=C(O)CSc1cc(NS(=O)(=O)c2cccc([N+](=O)[O-])c2)c2ccccc2c1O,active: 10 µM,–
O=C1C2=C(Nc3ccccc3SC2c2ccc(C(F)(F)F)cc2)c2ccccc21 (centres undefined),"inconclusive: 10 µM [inhibitor, partial curve, poor fit]",–
CCN(CC)c1ccc(CNc2nc3ccccc3n2CCN2CCOCC2)cc1,"inconclusive: 50.1 µM [inhibitor, partial curve]",–
O=[N+]([O-])c1cc(C(F)(F)F)ccc1NCCc1c[nH]c2ccc(O)cc12,"inconclusive: 17.8 µM [inhibitor, full curve, poor fit]",–
O=C(NC1CCCCC1)Oc1cccc2ccccc12,"inconclusive: 44.7 µM [inhibitor, partial curve, poor fit]",–
O=C(CCCN1C(=O)/C(=C\c2cccs2)SC1=S)Nc1ccccn1,"inconclusive: 11.2 µM [inhibitor, full curve]",–
Cc1oc(=O)c(NC(=O)c2ccc(Cl)cc2)cc1C(=O)c1ccccc1,–,inactive: -10.5%
CCC(C)NCCOc1cccc(Br)c1 (centres undefined),"inconclusive: 10 µM [inhibitor, partial curve]",–
O=C(CNCc1ccco1)Nc1cccc(S(=O)(=O)N2CCCCC2)c1,"inconclusive: 22.4 µM [inhibitor, full curve]",–
Cc1ccc(S(=O)(=O)Cc2nc(-c3ccc(C(=O)NCc4ccccc4F)cc3)oc2C)cc1,–,inactive: 22.3%
